In all, about 94,000 compounds went through this assay and about 4,000 (4.3%) were called active. This list was built around the results that the source calls inconclusive (neither active nor inactive); the mix of calls is not that of the screen. Calls follow the shape of the dose curve; as a rule, active = well fitted inhibition curve with a large enough effect; inconclusive = small, poorly fitted or top-dose-only effect; inactive = no such curve, though single readings can be large or run the other way. A potency beside an inconclusive call is a rough fit, not a confirmed value.
Assay: Cytotoxic Profiling in NIH 3T3 Cell Line of Diverse Libraries Using Quantitative High-Throughput Screening; also: nearly all actives have a fitted effect of over 55% in size
Details: NIH 3T3 viability, CellTiter-Glo ATP luminescence, 48-72 h; series mostly up to 96.7 µM
Method in brief: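 Cytotoxicity is measured as loss of cellular ATP: NIH 3T3 cells (400/well) are exposed to compound for 48 or 72 hr at 37 °C, then CellTiter-Glo luminescence is imaged after 10 min at room temperature.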
Potency is read from the fitted curve at half-maximal effect; tags tell the direction and shape of the fitted curve.

**Q.** With `Cn1ccc(NC(=O)C2(C)COCc3cnc(Nc4ccccc4)nc32)n1` (stereo not drawn) as the compound, how does the Potency read?
**A.** Its Potency is inconclusive: 100 µM [inhibitor, partial curve, poor fit].

**Q.** For `O=C(NCC1CN(C(=O)c2cccc(O)c2)CC12CN(c1ccccc1)C2)Nc1ccccc1` (stereo not drawn), which Potency is on record?
**A.** Its Potency is inconclusive: 50.1 µM [inhibitor, partial curve, poor fit].

**Q.** Which Potency does the source give for `N#Cc1cccnc1-c1ccc(C(=O)N2CCC(NC(=O)c3ccc(F)cc3)CC2)cc1` here?
**A.** The Potency was inconclusive: 35.5 µM [inhibitor, full curve, poor fit].

**Q.** Which Potency does the source give for `CN(Cc1ccc(N2CCNC2=O)cc1)CC1CCCN(CCc2ccc(F)cc2)C1` (stereo not drawn) here?
**A.** Its Potency is inconclusive: 56.2 µM [inhibitor, partial curve, poor fit].

**Q.** For `Cc1ccc(N2CC(c3noc(-c4ccsc4)n3)CC2=O)cc1` (stereo not drawn), which Potency is on record?
**A.** The Potency was inconclusive: 50.1 µM [inhibitor, partial curve, poor fit].

**Q.** Which Potency does the source give for `CC(=O)c1ccc(NC(=O)CN2C(=O)NC3(CCC(C(C)(C)C)CC3)C2=O)cc1` (stereo not drawn) here?
**A.** Its Potency is inconclusive: 50.1 µM [inhibitor, partial curve, poor fit].

**Q.** With `Cn1c2c(c3cc(F)ccc31)CN(C(=O)Nc1ccccc1)CC2` as the compound, how does the Potency read?
**A.** The Potency was inconclusive: 44.7 µM [inhibitor, partial curve, poor fit].

**Q.** For `CN(C)c1ccc(CN2CCC3(COc4ccccc4C(=O)N3)C2)cc1` (stereo not drawn), which Potency is on record?
**A.** Its Potency is inconclusive: 50.1 µM [inhibitor, partial curve, poor fit].

**Q.** Which Potency does the source give for `O=c1c2c(CO)c(-c3ccc(F)cc3)nn2ccn1Cc1ccccc1F` here?
**A.** Its Potency is “inactive”.

**Q.** For `COc1ccc(NC(=O)c2cnc3c(c2)N([S+](=O)([O-])c2cccnc2)CCC3)cc1OC`, which Potency is on record?
**A.** Its Potency is inconclusive: 35.5 µM [inhibitor, single point].

**Q.** Which Potency does the source give for `O=C(c1cc(F)ccc1F)N1CCC2(CC1)N=C(c1ccc(Cl)cc1)NO2` here?
**A.** Its Potency is inconclusive: 44.7 µM [inhibitor, partial curve, poor fit].

**Q.** With `CCC1(N2CCN(C(=O)c3cc(F)ccc3Cl)CC2)CCN(C(=O)NC)C1` (stereo not drawn) as the compound, how does the Potency read?
**A.** The Potency was “inactive”.

**Q.** Which Potency does the source give for `COc1ccccc1N1CCN(C(=O)CCc2conc2-c2ccc(C)cc2)CC1` here?
**A.** The Potency was inconclusive: 70.8 µM [inhibitor, single point].

**Q.** For `COC(=O)[C@@H]1Cc2nc[nH]c2CN1Cc1ccc(OC)c2ccccc12`, which Potency is on record?
**A.** The Potency was inconclusive: 89.1 µM [inhibitor, partial curve, poor fit].

**Q.** With `COc1ncccc1-c1cc(-c2ccncc2)c2cncn2c1` as the compound, how does the Potency read?
**A.** The Potency was active: 28.2 µM.

**Q.** Which Potency does the source give for `O=C(c1cn(C/C=C/c2ccccc2)nn1)N1CCN(c2cccc(Cl)c2)CC1` here?
**A.** The Potency was inconclusive: 22.4 µM [inhibitor, full curve].

**Q.** For `Cc1ccc(-c2cccc(CN3CCCC(c4nc5ccc(F)cc5c(=O)[nH]4)C3)c2)c(C)c1` (stereo not drawn), which Potency is on record?
**A.** The Potency was active: 39.8 µM.

**Q.** With `Cc1ccccc1-c1cnc2[nH]cc(CC(=O)Nc3ccccn3)c2c1` as the compound, how does the Potency read?
**A.** Its Potency is inconclusive: 44.7 µM [inhibitor, partial curve, poor fit].

**Q.** For `CCC(=O)N1CCCN(Cc2ccc3c(c2)OCO3)c2ccccc21`, which Potency is on record?
**A.** Its Potency is inconclusive: 39.8 µM [inhibitor, partial curve].

**Q.** For `CCCC(O)CN1CCC(=O)N(C2CCCC2)Cc2cc(F)ccc21` (stereo not drawn), which Potency is on record?
**A.** Its Potency is inconclusive: 56.2 µM [inhibitor, partial curve, poor fit].

**Q.** For `COc1ccccc1CNC(=O)C1(c2ccc(NS(C)(=O)=O)cc2)CCCCC1`, which Potency is on record?
**A.** Its Potency is inconclusive: 44.7 µM [inhibitor, partial curve, poor fit].

**Q.** Which Potency does the source give for `CCOc1ccccc1CN1CCC2(CCN(C(=O)COC)CC2)Oc2ccccc21` here?
**A.** Its Potency is inconclusive: 50.1 µM [inhibitor, partial curve, poor fit].

**Q.** With `CNC(=O)c1cn2cc(-c3ccc(OC)cc3)sc2n1` as the compound, how does the Potency read?
**A.** Its Potency is active: 100 µM.

**Q.** For `CCOc1ccc(C(=O)N2CCC3(CC2)CN(C2CCC2)CC3COC)cc1` (stereo not drawn), which Potency is on record?
**A.** Its Potency is “inactive”.

**Q.** With `C[C@@H](NC(=O)C1=C[C@@H](NC(=O)Nc2cccc(F)c2)[C@@H](O)[C@H](O)C1)C(N)=O` as the compound, how does the Potency read?
**A.** The Potency was “inactive”.

**Q.** With `Cc1noc(C)c1CCC(=O)N1C[C@@H](C)[C@@](C)(O)C1` as the compound, how does the Potency read?
**A.** Its Potency is “inactive”.

**Q.** For `Clc1cc(NC2CCCCC2)n2nccc2n1`, which Potency is on record?
**A.** The Potency was inconclusive: 44.7 µM [inhibitor, partial curve].

**Q.** With `COc1ccccc1-c1cccc(CN2CCCC(C(=O)NCC(F)F)C2)c1` (stereo not drawn) as the compound, how does the Potency read?
**A.** Its Potency is inconclusive: 35.5 µM [inhibitor, partial curve].

**Q.** With `CC(=O)Nc1cccc(C(=O)N2CCC(c3n[nH]c(=O)n3-c3ccccc3)CC2)c1` as the compound, how does the Potency read?
**A.** The Potency was “inactive”.

**Q.** With `COc1ccc(-c2cc(N3CCC(NC(=O)c4ccc5c(c4)OCO5)C3)n[nH]2)cc1` (stereo not drawn) as the compound, how does the Potency read?
**A.** Its Potency is inconclusive: 50.1 µM [inhibitor, single point].

**Q.** With `CN1CCN(c2nc3c(c(=O)[nH]2)CCN(Cc2cccc(Br)c2)CC3)CC1` as the compound, how does the Potency read?
**A.** Its Potency is inconclusive: 79.4 µM [inhibitor, partial curve, poor fit].

**Q.** Which Potency does the source give for `C[C@@]12CO[C@@H](Cc3ccccc3)O[C@@H]1CC[C@]1(C)C2CC[C@@H](O)[C@H]1CC(=O)NCc1ccccc1` (stereo partly drawn) here?
**A.** Its Potency is inconclusive: 50.1 µM [inhibitor, partial curve, poor fit].

**Q.** With `O=C(Cc1cccc(Cl)c1)N1CCCC(c2nn(-c3ccccc3)c(=O)[nH]2)C1` (stereo not drawn) as the compound, how does the Potency read?
**A.** The Potency was inconclusive: 70.8 µM [inhibitor, partial curve, poor fit].

**Q.** For `COc1ccc2ccc(OCc3nc(C(=O)N4CCNC(=O)C4C)co3)cc2c1` (stereo not drawn), which Potency is on record?
**A.** Its Potency is inconclusive: 31.6 µM [inhibitor, full curve].

**Q.** For `Fc1ccc(OCC2CCCN(c3ccc(Cn4ccnc4)cn3)C2)cc1` (stereo not drawn), which Potency is on record?
**A.** The Potency was inconclusive: 50.1 µM [inhibitor, partial curve, poor fit].

**Q.** For `CCN(Cc1cccnc1)C(=O)c1cc(-c2cnn(CC)c2)nc2cc(C)ccc12`, which Potency is on record?
**A.** Its Potency is active: 6.31 µM.

**Q.** With `Cc1cccc(N2CCN(C(=O)c3cc4n(n3)CC(c3ccc(Cl)cc3)OC4)CC2)c1` (stereo not drawn) as the compound, how does the Potency read?
**A.** The Potency was inconclusive: 50.1 µM [inhibitor, partial curve, poor fit].

**Q.** For `C[C@]1(NC(=O)Cc2ccccc2)OC[C@@H]2CC[C@H](C(=O)Nc3ccc(OC(F)(F)F)cc3)N2C1=O`, which Potency is on record?
**A.** The Potency was inconclusive: 50.1 µM [inhibitor, partial curve, poor fit].

Reference: PubChem BioAssay AID1345082 (National Center for Advancing Translational Sciences (NCATS), 2018)
